{"source": "PubChem BioAssay AID894", "about": "(National Center for Advancing Translational Sciences (NCATS), 2007)", "note": "The whole screen tested about 150,000 compounds, of which about 6,500 (4.3%) were called active. The inconclusive results got no clear call from the source; some entries with a clear call stand among them for comparison. The call rests on the fitted dose curve; in most records, active means well fitted inhibition curve with a large enough effect (not every such curve was filed as active); inconclusive means small, poorly fitted or top-dose-only effect, or another doubt; inactive means no such curve, though single readings can be large or run the other way. Potencies of inconclusive entries are left out as doubtful fits. On the % scale 0 is the no-effect control and ±100 the full control effect; potency means the concentration at half of the fitted maximal effect; tags describe the fitted curve by direction and shape."}
{"target": "15-hydroxyprostaglandin dehydrogenase [NAD(+)] (Homo sapiens) (UniProt P15428)", "sequence (P15428 whole entry, looked up)": "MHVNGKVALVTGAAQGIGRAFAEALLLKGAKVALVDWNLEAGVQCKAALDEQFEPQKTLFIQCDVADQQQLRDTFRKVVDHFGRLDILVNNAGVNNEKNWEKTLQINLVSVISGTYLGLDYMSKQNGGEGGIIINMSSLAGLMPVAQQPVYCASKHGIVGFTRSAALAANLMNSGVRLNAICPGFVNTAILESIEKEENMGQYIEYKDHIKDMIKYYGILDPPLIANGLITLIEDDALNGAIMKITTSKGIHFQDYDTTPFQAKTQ", "assay": "qHTS Assay for Inhibitors of HPGD (15-Hydroxyprostaglandin Dehydrogenase)", "settings": "purified HPGD, NADH fluorescence kinetic, PGE2 substrate; activity change, negative = inhibition: active compounds read low", "method_in_brief": "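NADH formation kinetics: reaction with 30 uM PGE2 and 1 mM NAD+ (final), 20 nM enzyme, Tris-HCl pH 8 with Tween 20, after 15 min compound preincubation at room temperature. Fluorescence change, last versus first of five reads.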"}
{"smiles": "c1ccc2oc(-c3ccc4nc[nH]c4c3)nc2c1", "Potency": "inconclusive [inhibitor, partial curve]"}
{"smiles": "COc1ccccc1-c1cc(C(=O)N/N=C/c2sccc2C)c2ccccc2n1", "Potency": "inconclusive [inhibitor, partial curve]"}
{"smiles": "COC(=O)C1=CN(C)C=C(C(=O)OC)C1c1ccccc1Cl", "Potency": "inconclusive [inhibitor, partial curve]"}
{"smiles": "CCOc1ccc(S(=O)(=O)Nc2ccccc2C(=O)Nc2ccccc2N2CCOCC2)cc1", "activity change, negative = inhibition": "inactive: -13.7%"}
{"smiles": "O=C(c1ccc2snnc2c1)N1CCSCC1", "Potency": "active: 14.1 µM"}
{"smiles": "CC1CCC(C(C)(C)O)CC2=C1CCC2C", "note": "(stereo not given)", "activity change, negative = inhibition": "inactive: 0.871%"}
{"smiles": "CCNc1ncc2nc(CCc3ccccc3)c(=O)n(-c3ccccc3)c2n1", "Potency": "inconclusive [inhibitor, full curve]"}
{"smiles": "CN(C)c1ccc(/C=C/C(=O)c2ccccc2)cc1[N+](=O)[O-]", "Potency": "active: 14.1 µM"}
{"smiles": "Cc1ccc2nc3c(cc(C(=O)NCC4CCCO4)n3C)c(=O)n2c1", "note": "(stereo not given)", "Potency": "inconclusive [inhibitor, partial curve]"}
{"smiles": "CCOC(=O)C(=O)c1csc(NC(=O)COc2ccc(N(C)S(=O)(=O)c3ccc(F)cc3)cc2)n1", "Potency": "inconclusive [inhibitor, partial curve]"}
{"smiles": "CN(c1ccc(C(=O)N2CCc3ccccc3C2)cc1)S(C)(=O)=O", "Potency": "active: 14.1 µM"}
{"smiles": "C/C(=N\\NC(=O)c1c(Cl)cnn1C)c1ccc(NC(=O)c2ccncc2)cc1", "Potency": "inconclusive [inhibitor, partial curve]"}
{"smiles": "CCOC(=O)c1ccc(NC(=O)C(=O)NCC2CCCO2)cc1", "note": "(stereo not given)", "activity change, negative = inhibition": "inactive: -2.18%"}
{"smiles": "O=C(Nc1nccs1)c1cc2c(s1)-c1ccccc1OC2", "Potency": "inconclusive [inhibitor, partial curve]"}
{"smiles": "N#CCCn1c(=O)c(-c2cccc(C#N)c2)nc2cnc(Oc3ccccc3)nc21", "Potency": "inconclusive [inhibitor, partial curve]"}
{"smiles": "O=C1NC2=C(CCc3ccccc32)C(c2ccccc2)N1", "note": "(stereo not given)", "Potency": "inconclusive [inhibitor, single point]"}
{"smiles": "Cc1cc(C)n(CCc2nc(-c3cccs3)cs2)n1", "activity change, negative = inhibition": "inactive: -8.29%"}
{"smiles": "C=CCNC(=O)/C(C#N)=C/c1cn(-c2ccccc2)nc1-c1ccc(OC)c([N+](=O)[O-])c1", "Potency": "inconclusive [inhibitor, partial curve]"}
{"smiles": "COc1ccc(CNC(NC(=O)c2ccccc2)(C(F)(F)F)C(F)(F)F)cc1", "activity change, negative = inhibition": "inactive: -7.04%"}
{"smiles": "C=CCn1c(=NC(=O)C2CC2)sc2cc(NC(C)=O)ccc21", "Potency": "inconclusive [inhibitor, partial curve]"}
{"smiles": "O=C(c1ccccc1)c1cc2ccc(O)cc2oc1=O", "Potency": "inconclusive [inhibitor, partial curve]"}
{"smiles": "Nc1nnnn1/N=C/c1ccccc1OCc1ccc(Cl)cc1", "Potency": "inconclusive [inhibitor, partial curve]"}
{"smiles": "CCN(CC)S(=O)(=O)c1ccc(Cc2ncc(C(F)(F)F)cc2Cl)s1", "activity change, negative = inhibition": "inactive: -17.5%"}
{"smiles": "NS(=O)(=O)c1ccc(NC(=S)Nc2nn(Cc3ccc(Cl)cc3Cl)cc2Cl)cc1", "activity change, negative = inhibition": "inactive: -9.18%"}
{"smiles": "Cc1cccc(/C=N/n2c(-c3ccncc3)n[nH]c2=S)c1", "Potency": "active: 15.8 µM"}
{"smiles": "Cc1ccc(C)c(N(C)S(=O)(=O)c2ccc3[nH]cc(C(=O)NCCN4CCOCC4)c(=O)c3c2)c1", "Potency": "inconclusive [inhibitor, single point]"}
{"smiles": "O=C(Nc1cccc2cccnc12)c1ccc2c(c1)OCCO2", "Potency": "inconclusive [inhibitor, partial curve]"}
{"smiles": "COc1cccc(C2CC(=O)N3CN(c4ccccc4F)CSC3=C2C#N)c1", "note": "(stereo not given)", "Potency": "inconclusive [inhibitor, single point]"}
{"smiles": "COc1ccc(CCCC(=O)NC2CCCCC2C)c(C)c1", "note": "(stereo not given)", "Potency": "active: 3.55 µM"}
{"smiles": "CCOC(=O)c1ccc(NC(=O)C2CCCO2)cc1", "note": "(stereo not given)", "Potency": "active: 25.1 µM"}
{"smiles": "Cc1cc(NC(=O)C2CCC2)n(-c2ccccn2)n1", "activity change, negative = inhibition": "inactive: -8.59%"}
{"smiles": "Cc1cccc(C(=O)N2CCN(c3ccccn3)CC2)c1", "Potency": "inconclusive [inhibitor, partial curve]"}
{"smiles": "Cc1ccc(S(=O)(=O)Nc2cc(-c3nn(C)c(=O)c4ccccc34)ccc2N2CCOCC2)cc1", "Potency": "inconclusive [inhibitor, single point]"}
{"smiles": "O=C(c1ccc(-n2cnnn2)cc1)N1CCOCC1", "activity change, negative = inhibition": "inactive: -24.1%"}
{"smiles": "Nc1nc(SCc2ccccc2Cl)cc(C(=O)O)n1", "activity change, negative = inhibition": "inactive: -21.5%"}
{"smiles": "Cc1c(C(=O)NCCSCc2ccc(Cl)cc2Cl)cccc1[N+](=O)[O-]", "Potency": "active: 22.4 µM"}
{"smiles": "C[C@@H]1COc2c(N3CCN(C)CC3)c(F)cc3c(=O)c(C(=O)O)cn1c23", "Potency": "inconclusive [inhibitor, full curve]"}
{"smiles": "COc1ccc(C2CC(=O)C3=C(C2)Nc2ccccc2NC3c2coc3ccccc3c2=O)cc1OC", "note": "(stereo not given)", "activity change, negative = inhibition": "inactive: -9.66%"}
{"smiles": "O=C(Nc1ccc(OCC(F)(F)C(F)F)c(C(F)(F)F)c1)c1ccccc1O", "Potency": "inconclusive [inhibitor, partial curve]"}
{"smiles": "Cc1cc2nnc(SC3CCCCN(C(=O)c4ccc(F)cc4)C3=O)n2c2ccccc12", "note": "(stereo not given)", "Potency": "inconclusive [inhibitor, partial curve]"}
{"smiles": "C=CCn1cc(C(=O)NCc2ccc3c(c2)OCO3)c(=O)c2cc(S(=O)(=O)N(CC)CC)ccc21", "Potency": "inconclusive [inhibitor, partial curve]"}
{"smiles": "O=c1c2ccccc2nc(-c2cccs2)n1-c1ccc2ccccc2c1", "Potency": "inconclusive [inhibitor, partial curve]"}
{"smiles": "C/C(=N\\NC(=S)Nc1ccc(C)c(C)c1)c1ccc(N2CCOCC2)cc1", "Potency": "inconclusive [inhibitor, partial curve]"}
{"smiles": "COc1ccc(CCN2C(=O)CN(Cc3ccccc3)CC2=O)cc1OC", "activity change, negative = inhibition": "inactive: 2.07%"}
{"smiles": "CCOc1ccc2[nH]c(=O)c(CN(CC3COCCO3)C(=O)C3CC3)cc2c1", "note": "(stereo not given)", "Potency": "inconclusive [inhibitor, partial curve]"}
